Test results taken from PubChem BioAssay AID624202 (National Center for Advancing Translational Sciences (NCATS), 2012).
Among all 380,000 compounds or so, about 4,000 (1.1%) were called active. The inconclusive results got no clear call from the source; some entries with a clear call stand among them for comparison. Calls come from the whole dose curve; as a rule, active = well fitted activation curve with a large enough effect; inconclusive = small, poorly fitted or top-dose-only effect; inactive = no such curve, though single readings can be large or run the other way. Potencies beside an inconclusive call are fits to weak or partial responses and may not hold up.

Assay: qHTS Assay to Identify Small Molecule Activators of BRCA1 Expression; note: nearly all actives have a fitted effect of over 80% in size
Settings: MCF7-BRCA1-FFLuc reporter, luminescence, 48 h; activation: at 46.1 µM (top of the series), scaled: vehicle 0%, 10 µM genistein 100% unless noted
Summary of the method: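 Compounds are tested at multiple concentrations on MCF7 BRCA1-luciferase reporter cells seeded at 2000 per well; after 48 h, a single luminescence end-point is taken and curves fitted to the normalized data.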
Potency is the fitted concentration of half-maximal effect; tags give direction and shape of the fitted curve.

| Structure (SMILES) | Potency | activation |
| --- | --- | --- |
| FC(F)Oc1ccc(C2N=C(c3ccccc3)NO2)cc1 (centres undefined) | active: 4.47 µM |  |
| Cc1c(C(=O)N2CCCC2)oc2ccc(Br)cc12 | active: 6.31 µM |  |
| O=C(Nc1cccc(F)c1)Nc1ccc2c(c1)CCC2 | active: 2 µM |  |
| CCn1nc(C)cc1C(=O)Sc1ccc(C)cc1 | inactive |  |
| O=C(NCC1CCCO1)c1cc2c(s1)CCC2 (centres undefined) | inconclusive: 10 µM [activator, partial curve, poor fit] |  |
| Nc1nc2sc3c(c2c(=O)s1)CCCC3 | active: 11.2 µM |  |
| CC1CCN(c2ccc([N+](=O)[O-])cc2C(=O)O)CC1 | inconclusive: 35.5 µM [activator, single point] |  |
| COc1cc(C=O)ccc1OCc1ccc(Cl)nc1 | inconclusive: 15.8 µM [activator, partial curve, poor fit] |  |
| O=C(Nc1ccc(F)c(Cl)c1)c1ccccc1 | inconclusive: 3.55 µM [activator, full curve, poor fit] |  |
| COC(=O)c1ccc(/C=N/Nc2nc(C)c(C)s2)cc1 | inconclusive: 12.6 µM [activator, partial curve, poor fit] |  |
| Cc1ccsc1C(=O)OCC(=O)NCCc1ccccc1 | inconclusive: 11.2 µM [activator, partial curve, poor fit] |  |
| CSc1ccc(NC(=O)Nc2ccccc2C(N)=O)cc1 | inconclusive: 7.94 µM [activator, partial curve, poor fit] |  |
| O=C(N/N=C\c1ccc(COc2ccc([N+](=O)[O-])cc2)o1)c1cccc(Cl)c1 | inactive |  |
| CCC(c1nnnn1C1CCCCC1)N(Cc1ccco1)Cc1cc2ccc(OC)cc2[nH]c1=O (centres undefined) | inactive |  |
| Cc1ccc(O)c(C(=O)/C=C/c2ccc3c(c2)OCCO3)c1 | inconclusive: 20 µM [activator, single point] |  |
| CCOC(=O)C(O)C1CCc2c([nH]c3ccc(C)cc23)C1=O (centres undefined) | inconclusive: 17.8 µM [activator, partial curve, poor fit] |  |
| CN(c1ccc(C(=O)Nc2ccc3c(c2)OCO3)cc1)S(C)(=O)=O | active: 6.31 µM |  |
| NS(=O)(=O)c1ccc(C(=O)Nc2ccc(-c3nc4cccnc4s3)cc2)cc1 | inconclusive: 4.47 µM [activator, partial curve, poor fit] |  |
| CCCC(=O)Nc1ccc2oc(-c3cncc(Br)c3)nc2c1 | active: 3.16 µM |  |
| C=C(C)COc1ccc(-c2ncncc2-c2ccccc2OC)c(O)c1 | inactive |  |
| COc1ccc(CNc2ccc3c(c2)nc(C)n3C)cc1 | inconclusive: 1 µM [activator, full curve, poor fit] |  |
| CSc1nnc(NC(=O)c2nc(S(=O)(=O)Cc3ccccc3F)ncc2Cl)s1 | inactive |  |
| COc1cccc(CNC(=O)c2ccc3c(c2)nnn3C2CCCC2)c1 | inactive |  |
| CC(=O)NNc1nc(-c2ccc(C)cc2)cs1 | inconclusive: 35.5 µM [activator, single point] |  |
| Cc1ccc(S(=O)(=O)/N=C(/NC(=S)Nc2ccccc2)c2ccccc2)cc1 | inconclusive: 2.51 µM [activator, partial curve, poor fit] |  |

| Structure (SMILES) | Potency | activation |
| --- | --- | --- |
| OCC1CCCN(C(=S)Nc2ccc(Oc3ccccc3)cc2)C1 (centres undefined) | inconclusive: 2.51 µM [activator, partial curve, poor fit] |  |
| CSCCC(=O)Nc1ccc(C(C)=O)cc1 | active: 12.6 µM |  |
| CS(=O)(=O)c1ccc2nc(NC(=O)c3ccccc3)sc2c1 | inconclusive: 2 µM [activator, full curve, poor fit] |  |
| COc1cccc(-c2ccc3c(N)c(C(=O)NC4CC4)sc3n2)c1 |  | inconclusive: 55.8% [activator] |
| FC(F)(F)c1ccc(NCc2ccccn2)nc1 | inconclusive: 10 µM [activator, partial curve, poor fit] |  |
| CCOc1ccc2nc(N3CCCC(C(=O)NCC4CCCO4)C3)sc2c1 (centres undefined) | active: 10 µM |  |
| COc1cc(F)ccc1-c1csc(C(NC(C)=O)c2ccc(F)c(F)c2)n1 (centres undefined) | inactive |  |
| O=C(COc1ccc(Cl)cc1Cl)Nc1cccc(-c2ccc(N3CCOCC3)nn2)c1 | active: 1.41 µM |  |
| COc1cc(/C=C2/C(=O)ON=C2C)ccc1OCc1ccccc1F | inconclusive: 2.82 µM [activator, full curve, poor fit] |  |
| Nc1c(Cl)cc(C2=NCCn3nc4cc(C(F)(F)F)ccc4c32)cc1Cl | inactive |  |
| N/C(=N\OC(=O)C1CCCCC1)c1cccc(Br)c1 | inconclusive: 7.08 µM [activator, partial curve, poor fit] |  |
| CCn1c2ccccc2c2cc(NC(=O)N3CCOCC3)ccc21 | active: 11.2 µM |  |
| CCOC(=O)c1c(C)c(C(=O)NCCc2ccccc2)c(C)n1C | active: 10 µM |  |
| C=C1C=C(C)n2ncc(C(=O)N(CCc3ccccc3)Cc3ccccc3)c2N1 | inactive |  |
| CCCn1cnc2c(SCCc3ccccc3)nc(N)nc21 | active: 12.6 µM |  |
| Clc1ccc(-c2ccn[nH]2)cc1 | inconclusive: 20 µM [activator, single point] |  |
| S=C(Nc1ccc2nsnc2c1)N1CCCCCC1 | inconclusive: 14.1 µM [activator, partial curve, poor fit] |  |
| CC(C)(C)OC(=O)CC12CCCCC1NC(=O)O2 (centres undefined) | inactive |  |
| C=CCc1cccc(C=Nc2cccn3cc(-c4ccccc4)nc23)c1O | active: 11.2 µM |  |
| O=C(CSc1nnc(-c2cccnc2)o1)Nc1cccc(Cl)c1 | inconclusive: 17.8 µM [activator, single point] |  |
| CCC(C)C(=O)N1CCc2cc(-c3csc(N)n3)ccc21 (centres undefined) | inconclusive: 1.26 µM [activator, partial curve, poor fit] |  |
| CCNC(=S)Nc1ccc(OCc2nc3ccccc3s2)cc1 | inconclusive: 2.51 µM [activator, full curve, poor fit] |  |
| CC(=O)c1ccc(OCc2ncc(C(F)(F)F)cc2Cl)cc1 | inconclusive: 11.2 µM [activator, partial curve, poor fit] |  |
| O=C(O)c1ccc(NC(=S)NC(=O)c2ccc3ccccc3c2)cc1 | inconclusive: 14.1 µM [activator, partial curve, poor fit] |  |
